# Several values for one entry are separate records, joined by “and”; a condition that tells them apart may be missing. Equal values may be shown once. The whole screen tested about 360,000 compounds, of which about 16,000 (4.4%) were called active. The inconclusive results got no clear call from the source; some entries with a clear call stand among them for comparison. Calls follow the shape of the dose curve; as a rule, active = well fitted inhibition curve with a large enough effect; inconclusive = small, poorly fitted or top-dose-only effect; inactive = no such curve, though single readings can be large or run the other way. Potencies beside an inconclusive call are fits to weak or partial responses and may not hold up.
# Target: Bromodomain adjacent to zinc finger domain protein 2B (Homo sapiens) (UniProt Q9UIF8)
# Sequence of UniProt Q9UIF8 (Q9UIF8 whole entry, looked up, the tested form may be a part): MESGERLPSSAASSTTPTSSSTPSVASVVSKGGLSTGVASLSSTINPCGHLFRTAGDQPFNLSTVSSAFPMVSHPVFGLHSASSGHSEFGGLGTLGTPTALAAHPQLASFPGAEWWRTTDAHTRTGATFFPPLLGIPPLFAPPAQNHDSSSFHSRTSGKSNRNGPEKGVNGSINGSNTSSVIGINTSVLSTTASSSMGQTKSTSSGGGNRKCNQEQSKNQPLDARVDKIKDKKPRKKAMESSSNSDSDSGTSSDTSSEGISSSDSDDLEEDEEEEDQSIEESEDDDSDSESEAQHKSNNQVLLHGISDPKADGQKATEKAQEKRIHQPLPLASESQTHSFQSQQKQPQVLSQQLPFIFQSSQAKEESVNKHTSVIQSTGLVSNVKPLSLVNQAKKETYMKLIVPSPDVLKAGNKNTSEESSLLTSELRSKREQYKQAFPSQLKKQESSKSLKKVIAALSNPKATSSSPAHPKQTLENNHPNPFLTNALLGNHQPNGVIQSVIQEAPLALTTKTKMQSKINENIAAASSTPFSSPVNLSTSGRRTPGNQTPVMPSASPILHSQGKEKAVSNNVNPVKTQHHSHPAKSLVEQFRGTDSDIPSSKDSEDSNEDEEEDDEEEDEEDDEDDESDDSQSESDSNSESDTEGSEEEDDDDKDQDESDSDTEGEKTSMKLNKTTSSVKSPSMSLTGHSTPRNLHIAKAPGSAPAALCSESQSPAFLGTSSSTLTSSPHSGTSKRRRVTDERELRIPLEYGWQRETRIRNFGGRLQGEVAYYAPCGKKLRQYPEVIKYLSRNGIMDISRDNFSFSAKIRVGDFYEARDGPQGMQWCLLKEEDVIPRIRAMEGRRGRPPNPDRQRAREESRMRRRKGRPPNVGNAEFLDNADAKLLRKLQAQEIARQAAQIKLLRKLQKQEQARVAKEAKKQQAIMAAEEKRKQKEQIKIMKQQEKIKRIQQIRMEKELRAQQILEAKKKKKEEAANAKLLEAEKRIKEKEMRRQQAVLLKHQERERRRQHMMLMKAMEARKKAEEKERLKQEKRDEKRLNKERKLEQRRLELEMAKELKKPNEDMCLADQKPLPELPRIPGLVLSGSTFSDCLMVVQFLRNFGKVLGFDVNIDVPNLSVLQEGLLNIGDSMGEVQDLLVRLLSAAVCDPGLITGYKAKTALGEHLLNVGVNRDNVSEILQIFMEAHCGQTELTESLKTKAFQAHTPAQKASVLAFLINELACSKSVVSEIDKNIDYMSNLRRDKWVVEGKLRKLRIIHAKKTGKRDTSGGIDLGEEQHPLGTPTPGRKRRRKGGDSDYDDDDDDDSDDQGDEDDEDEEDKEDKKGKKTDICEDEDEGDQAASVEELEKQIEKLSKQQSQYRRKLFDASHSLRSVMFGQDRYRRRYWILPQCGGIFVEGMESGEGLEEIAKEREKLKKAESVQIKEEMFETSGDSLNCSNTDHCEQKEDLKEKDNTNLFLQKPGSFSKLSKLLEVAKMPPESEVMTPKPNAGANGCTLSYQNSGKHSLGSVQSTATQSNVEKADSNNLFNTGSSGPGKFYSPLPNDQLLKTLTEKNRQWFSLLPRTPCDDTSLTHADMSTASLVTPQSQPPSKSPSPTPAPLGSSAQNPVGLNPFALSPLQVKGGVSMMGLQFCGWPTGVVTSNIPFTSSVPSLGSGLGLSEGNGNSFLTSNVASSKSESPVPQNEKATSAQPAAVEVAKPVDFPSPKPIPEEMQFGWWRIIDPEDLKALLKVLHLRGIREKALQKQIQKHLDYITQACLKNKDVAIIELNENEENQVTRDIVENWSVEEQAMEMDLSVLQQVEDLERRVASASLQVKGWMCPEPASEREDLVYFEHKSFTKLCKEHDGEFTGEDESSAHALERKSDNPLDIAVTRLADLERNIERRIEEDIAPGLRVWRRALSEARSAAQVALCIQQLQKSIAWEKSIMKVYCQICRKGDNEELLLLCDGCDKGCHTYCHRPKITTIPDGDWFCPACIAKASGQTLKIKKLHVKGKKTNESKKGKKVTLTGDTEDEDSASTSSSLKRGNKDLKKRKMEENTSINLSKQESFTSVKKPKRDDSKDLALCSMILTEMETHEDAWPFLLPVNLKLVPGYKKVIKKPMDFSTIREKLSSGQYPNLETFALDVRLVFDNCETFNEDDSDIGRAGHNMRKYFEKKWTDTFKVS
# Experiment: qHTS Assay for Inhibitors of BAZ2B; also: nearly all actives have a fitted effect of over 60% in size
# Conditions: AlphaScreen BAZ2B-H3K14Ac peptide displacement; activity change, negative = inhibition: at 114 µM (top of the series)
# Outline: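 AlphaScreen displacement: compounds (up to 110uM) incubated 30 min at room temperature with a preformed 50 nM BAZ2B/50 nM biotinylated H3K14Ac peptide complex in PBS pH 7.4 with Tween-20. Donor and acceptor beads at 10 ug/mL final added, 20 min light-protected before reading.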
# % is scaled to controls: 0 for no effect and ±100 for the full control effect; potency is read from the fitted curve at half-maximal effect; tags tell the direction and shape of the fitted curve.
SMILES,Potency,"activity change, negative = inhibition"
COc1cccc(-c2ncc3ccccc3c2COC(=O)N2CCCCC2)c1,"inconclusive: 89.1 µM [inhibitor, single point]",
O=C(c1ccc(Cl)c(S(=O)(=O)Nc2ccccc2C(=O)N2CCc3ccccc3C2)c1)N1CCc2ccccc2C1,"inconclusive: 44.7 µM [inhibitor, partial curve, poor fit]",
COCCCNCCC(CCC(C)C)c1ccc2c(c1)OCO2 (centres undefined),"inconclusive: 79.4 µM [inhibitor, partial curve]",
Fc1ccc(CSc2nnc(-c3cnccn3)n2Cc2ccco2)cc1,,inactive: -32.9%
CC(Nc1cccc2ccccc12)C(=O)N/N=C/c1ccc([N+](=O)[O-])cc1 (centres undefined),"inconclusive: 25.1 µM [inhibitor, full curve]",
Cc1cc2occ(CC(=O)N(C)CC(=O)Nc3cccc(F)c3)c2cc1C,,inactive: -36.5%
COc1cc(/C=C2\C(=N)N3N=C(S(C)(=O)=O)SC3=NC2=O)cc(OC)c1OCCOc1ccccc1C,active: 56.2 µM,
O=C(NCn1ccc(=O)[nH]c1=S)c1ccccc1,,inactive: -3.66%
Cc1ccc(-c2cc(C(=O)Oc3ccccc3)c3cc(C)ccc3n2)cc1,,inactive: -0.953%
COc1ccccc1-c1n[nH]c2c1[C@H](C)CC[C@H]2C(C)C,"inconclusive: 79.4 µM [inhibitor, single point]",
COc1ccc2c(c1)c1c(c(=O)n(-c3cccc(Cl)c3)c(=O)n1CC(=O)N1CCCC1)n2C,,inactive: -11%
CC(C)c1c(C(=O)N/N=C/C2CC=CCC2)nnn1-c1nonc1N (centres undefined),"inconclusive: 63.1 µM [inhibitor, partial curve, poor fit]",
COc1cccc(N2CC(NC(=O)c3cccc(OC)c3OC)CC2=O)c1 (centres undefined),,inactive: 2.24%
O=C(/C=C/c1ccccc1)NC(=O)c1ccccc1O,active: 79.4 µM,
CCN(CC)CCN1C(=O)C(=O)/C(=C(/O)c2ccc(C)cc2)C1c1cccnc1 (centres undefined),,inactive: -38.6%
CN(C)CCCNC(=O)c1ccc(Cl)c(S(=O)(=O)N(C)c2ccccc2)c1,"inconclusive: 89.1 µM [inhibitor, single point]",
O=C(CN1CCN(C2CCCCC2)CC1)NCCC1=CCCCC1,active: 50.1 µM,
COC(=O)C1=C(CN2CCc3ccccc32)NC(=O)NC1c1cc(C)ccc1C (centres undefined),active: 50.1 µM,
CCOC(=O)c1ccc2c(c1)n(CC)c(C)[n+]2CC,,inactive: -32.4%
c1ccc2c(c1)CSc1sccc1C2=C1CCNCC1,"inconclusive: 50.1 µM [inhibitor, partial curve]",
CCOC(=O)c1ccc(NC(=O)COc2ccccc2CNCCc2ccccc2)cc1,,inactive: 14.8%
Nn1c(SCC(=O)Nc2ccc3c(c2)OCO3)nnc1-c1ccccc1,"inconclusive: 6.31 µM [inhibitor, single point]",
Cc1ccc(NC(=O)CSc2nc(-c3ccco3)nc3cc(=O)[nH]n23)cc1C,active: 39.8 µM,
CCC(C)NC(=O)CSc1nc2c(sc3ccccc32)c(=O)n1Cc1ccccc1Cl (centres undefined),,inactive: 1.77%
Cc1ccc(C)c(CSc2nc3ccncc3n2CC(=O)Nc2ccc(N(C)C)cc2)c1,"inconclusive: 5.62 µM [inhibitor, full curve]",

SMILES,Potency,"activity change, negative = inhibition"
CN(c1ccc(F)cc1)S(=O)(=O)c1ccc(Cl)c(C(=O)NCC(c2ccco2)N2CCCCC2)c1 (centres undefined),active: 56.2 µM,
O=C(NCC1CCCO1)c1onc(CSc2ccccc2F)c1C(=O)O (centres undefined),active: 79.4 µM,
COc1ccccc1/C=C(\C#N)C(=O)c1cccn1C,"inconclusive: 44.7 µM [inhibitor, partial curve]",
O=C1OC(c2ccc(Cl)cc2)=N/C1=C\c1cccnc1,,inactive: 2.81% [at 57.1 µM]
COc1ccc(CCNC(=O)c2ccc(CNS(=O)(=O)c3cc(C)ccc3C)cc2)cc1OC,,inactive: -5.52%
CC(NC(=O)c1sc2cc([N+](=O)[O-])ccc2c1Cl)C(C)(C)C (centres undefined),,inactive: -15.8%
O=C(CSc1ccccc1)Nc1ccc(-c2nc3ccccc3[nH]2)cc1,"inconclusive: 89.1 µM [inhibitor, single point]",
CC(=O)Nc1sc(C)c(C)c1CN1CCN(Cc2ccccc2)CC1,"inconclusive: 79.4 µM [inhibitor, single point]",
Cc1cccc(N2CCN(C(=O)CCS(=O)(=O)c3ccc(Br)cc3)CC2C)c1 (centres undefined),active: 31.6 µM,
Cc1nn(-c2ccc(N3CCOCC3)nn2)c(C)c1CCC(=O)NCc1ccc(F)cc1,"inconclusive: 89.1 µM [inhibitor, single point] and inconclusive: 11.2 µM [inhibitor, partial curve, poor fit]",
Cc1ccc(-n2nnc(C(=O)Nc3cc(F)ccc3F)c2C)cc1F,,inactive: 6.11%
COc1ccc(N2CCN(CCCNC(=O)CC3Oc4ccc(C)cc4NC3=O)CC2)cc1 (centres undefined),"inconclusive: 44.7 µM [inhibitor, partial curve]",
COc1cccc(/C=N/NC(N)=S)c1OCc1ccccc1Cl,"inconclusive: 44.7 µM [inhibitor, partial curve]",
CCCN(C(=O)Cc1nc(N)n[nH]1)C1(C(=O)Nc2ccccc2C)CCCCC1,active: 44.7 µM,
Cn1c2c(c(=O)n(C)c1=O)C(CC(=O)Nc1ccc(F)cc1)C(=O)N2 (centres undefined),"inconclusive: 89.1 µM [inhibitor, single point]",
COc1ccc(NC(=O)CCS(=O)(=O)c2ccc(OC)cc2)cc1,,inactive: -2.68%
CCN(CCCNS(=O)(=O)c1ccc2c(c1)CCN2C(C)=O)c1cccc(C)c1,"inconclusive: 56.2 µM [inhibitor, partial curve]",
CC(NCC1(N2CCOCC2)CCCCC1)C(=O)N1CCc2ccccc21 (centres undefined),active: 39.8 µM,
C/C(=C\C(=O)c1ccccc1)NNc1nc2ccccc2s1,"inconclusive: 89.1 µM [inhibitor, single point]",
c1ccc(CN(Cc2ccco2)C(c2ccncc2)c2nnnn2C2CCCC2)cc1 (centres undefined),"inconclusive: 79.4 µM [inhibitor, single point]",
COc1cc(NC(=O)c2nc(-c3ccncc3)no2)cc(OC)c1OC,,inactive: -1.83%
CCOc1ccccc1OCCCOc1ccc(C)cc1Br,,inactive: 123%
CCOC(=O)N1CCN(C(=O)/C(=C/c2ccc(N(C)C)cc2)NC(=O)c2ccccc2)CC1,,inactive: -27.1%
O=C(Nc1nnc(-c2ccco2)o1)c1cccc(N2C(=O)CCC2=O)c1,active: 22.4 µM,
COc1ccc(C2CCCN2CC(O)COc2ccccc2C(C)C)cc1 (centres undefined),,inactive: -3.27%

SMILES,Potency,"activity change, negative = inhibition"
Cc1cccc(C)c1NC(=O)C1(C)c2cccc[n+]2CC(=O)N1Cc1cccs1 (centres undefined),"inconclusive: 56.2 µM [inhibitor, partial curve, poor fit]",
Cc1ccc(N(CC(O)CON=C2c3ccccc3-c3ccccc32)S(C)(=O)=O)cc1 (centres undefined),,inactive: -1.44%
Cc1ccc(CNC(=O)c2cc3c(=O)n(Cc4cccnc4)ccc3nc2C)cc1,,inactive: -14.7%
CCOc1cccc(C2c3c(-c4cc(C)ccc4O)n[nH]c3C(=O)N2Cc2ccco2)c1 (centres undefined),"inconclusive: 22.4 µM [inhibitor, full curve, poor fit]",
CC1CCN(C(=O)c2ccc(-c3ccccc3Cl)o2)CC1,"inconclusive: 44.7 µM [inhibitor, partial curve]",
Cc1cccc(CN2CCc3c([nH]c4ccccc34)C2)c1,active: 50.1 µM,
Cc1cc(C)cc(NC(=S)/C(=C(\[O-])c2ccc(Cl)cc2Cl)[n+]2ccccc2)c1,"inconclusive: 50.1 µM [inhibitor, partial curve]",
Cc1cccc(N=C2NC(=O)/C(=C/c3cccn3C)S2)c1C,active: 31.6 µM,
CN(Cc1c(C(=O)N/N=C/c2cccc(O)c2)nnn1-c1nonc1N)c1ccccc1,"inconclusive: 25.1 µM [inhibitor, single point]",
COc1ccc(NC2=NCC(Cc3ccc(Br)cc3)S2)cc1 (centres undefined),"inconclusive: 44.7 µM [inhibitor, partial curve]",
Cc1ccc(CN(Cc2ccco2)C(=O)COc2ccc(C(C)C)cc2)cc1,,inactive: 57%
CCN(CC)c1ccc(NC(=O)c2ccc(Br)o2)c(C)c1,active: 39.8 µM,
O=C(N/N=C\c1cccc(Br)c1)c1ccccc1-n1cccc1,"inconclusive: 89.1 µM [inhibitor, single point]",
CCOC(=O)C1CCN(c2cc3c(cc2NC(=O)c2ccccc2F)n(C)c(=O)n3C)CC1,active: 50.1 µM,
COCCn1nnnc1C(c1cc2cc(OC)c(OC)cc2[nH]c1=O)N1CCN(c2ccc(O)cc2)CC1 (centres undefined),active: 28.2 µM,
CN(C)CCCn1c(=O)n(CCc2ccccc2)c(=O)c2c3c(sc21)CCCCC3,"inconclusive: 35.5 µM [inhibitor, partial curve]",
CCN(C(=O)Cn1c(=O)oc2cc(S(=O)(=O)N3CCOCC3)ccc21)c1ccccc1,"inconclusive: 70.8 µM [inhibitor, single point]",
COc1cc(OC)c(OC)cc1/C=N/NC(=O)c1ccc(=O)n(C)c1,,inactive: -3.63%
CC(=O)Nc1ccc(S(=O)(=O)n2cnc3ccccc32)cc1,"inconclusive: 89.1 µM [inhibitor, single point]",
c1cc(-c2sc(-c3ccncc3)c(-c3ccncc3)c2-c2ccncc2)ccn1,"inconclusive: 89.1 µM [inhibitor, single point]",
CC(/C=C/c1ccccc1)=N\Nc1ccccc1[N+](=O)[O-],active: 2.24 µM,
CCC(=O)N1N=C(c2ccc(C)o2)CC1c1ccc(Br)cc1 (centres undefined),"inconclusive: 50.1 µM [inhibitor, partial curve]",
O=C(c1ccccc1)c1ccc2nc(-c3ccc(NC(=O)c4ccccc4F)cc3)[nH]c2c1,"inconclusive: 100 µM [inhibitor, single point]",
CCCCCCC(=O)N/N=C/Cc1ccccc1,"inconclusive: 100 µM [inhibitor, single point]",
